Measured values taken from the supplement of paper PMC10126150.
Values marked as one replicate rest on one cluster of the flow cell; about a third of the high ones do not repeat.

Test system: ATP
Assay: switch fluorescence ratio, 500 uM ATP over buffer (Cy3 cluster intensity, sum of 5 cycles each) (fold (ratio)); higher = stronger signal-on switching upon ATP binding; sequences stand for … in TCGTCGGCAGCGTCAGATGTGTATAAGAGACAGTTTTTTTTTTTTTTTTTTTTTTTTT…TC
Details: aptamer strand: ATP DNA aptamer (quencher-CACCTGGGGGAGTATTGCGGAGGAAGG + anchor), 100 nM annealed; ATP concentration: 500 uM; one replicate
Summary of the method: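 Switching-strand clusters labelled with Cy3 on a modified Illumina MiSeq flow-cell were annealed to 100 nM quencher-labelled ATP aptamer, imaged in selection buffer, and re-imaged after 15 min with 500 uM ATP at 22 °C. This was done over five cycles with NaOH stripping and re-annealing in between. The fluorescence ratio is summed target-cycle over summed buffer-cycle Cy3 intensity per cluster, averaged per switch-domain sequence, excluding clusters outside 100-1000 RFU.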
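Note: ATP exposure 15 min at 22 °C before imaging.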

Sequence	switch fluorescence ratio
ATATGGCGG	0.965
CCGTTTGTGT	1.06
GGTCTATGTT	0.967
AGTCTTAGGC	1.02
TGCACTAGTG	1.05
CTCGTCGAAA	1.1
TTCACCAATC	1.04
GAAGTATAAG	1.03
CTTGTGTTTT	0.98
TTATTATGCA	1.02
TTATCGGGA	1
CAATCTTA	1.01
ACCAACTCTA	1.17
ATGGGCCAAT	1.05
GAGGCCGGCT	1.09
TTTGCCGATA	1.03
ACGAGATCAT	1.03
TGCCTACCTT	1.06
TATTCAAAG	0.941
AGCGGACTGA	1.02
TAGGAGGACG	1.07
TTTGATACTA	1.03
ATTACTTAGG	1.07
TGACATCTTT	1.04
AGGATAATTC	1.04

Sequence	switch fluorescence ratio
GTACCCATGA	1.02
GCTCTAGTAT	1
TTCTGATCGC	0.995
TATGGCTTGC	0.992
AAGTTAACCG	1.01
AAGCGGACGT	0.99
GTTTGTCCTC	0.987
TAATCAATGA	1.03
ATGGAGAGAT	0.944
GGCTTACTGG	1.01
TGAATTAAAG	0.991
CAGAATCGCG	1.01
CACTAGTTCT	1.02
TCAAGTTCTG	0.983
CTACTGTCAG	0.981
ATGGCAGTGG	1.03
AGATGCTACA	0.974
AACACTGAAT	1.03
ATTTCTCCAT	0.991
GCGGAATCTA	1.07
CCGTGAGGAC	1.16
TTTCAACACA	0.978
ACCAGCATGC	1.1
GAGGTACAGT	1.03
TGTTTTATAG	0.962

Sequence	switch fluorescence ratio
TATTACCCTC	1.03
ACAAGCACAG	1.25
ACGCGCCTAC	1.63
TATGGTGCT	1.02
GGGTCCTTG	0.995
GCTTTAGATG	0.984
AACGACATGG	1.27
GGAGTAAACG	1.12
CTGGCCAACA	0.987
TTCCACAGCC	1.55
TCCCGTTCGG	1.01
GGGGACCTA	0.969
GAGTCCTG	0.988
GGCTTACCCA	0.983
TGTTCCCGGG	1.01
GCTCTGTGGC	1.03
GGTCGGTTAT	1.07
GATATCGAAA	1.01
GGGGCATCTG	1.03
GGCAGTGGCA	1
TATTTAAGAT	1.02
ATATCGTGGG	0.939
TGTTTTAGCG	0.995
CCCCCAATAT	1.21
TGAATTTCCA	0.971

Sequence	switch fluorescence ratio
TTACAAGTT	0.993
GGTATTACCG	0.956
TACGGTTTTG	1.02
AGGATTTCCA	0.991
AGTGGCTGTG	0.973
AGGACGTGAC	1.39
CTCTTCGGGA	1.05
ATTTTAGGAG	0.977
ACTTGAGGTG	1.12
GGAGCAGAAT	1.42
CGCATCTTTC	1.34
TTGGTACCGA	0.995
TACCTTGGAA	1.06
TAGTCGGTTC	0.952
GGGCCAGGCC	1.01
TGTAAAAGTC	1.05
CACTCGTCCT	1.15
CACGATGGTC	1
GGAGGCACCC	1.04
CCGGGGATTA	1.05
GACCAAAATA	1.04
CTCATAGGAG	1.03
ACTAAGCTCA	1.09
GCGGAAAGGT	0.974
GTTGAACGGG	1.01
